Measured values reported in PubChem BioAssay AID1645882 (National Center for Advancing Translational Sciences (NCATS), 2021).
The campaign covered roughly 16,000 compounds. About 120 (0.75%) were called active. Another 4% or so got no clear call; they are omitted. Calls follow the shape of the dose curve; as a rule, active = well fitted inhibition curve with a large enough effect; inconclusive = small, poorly fitted or top-dose-only effect; inactive = no such curve, though single readings can be large or run the other way. Some of the results follow.

Target: Rap guanine nucleotide exchange factor 3 (Homo sapiens) (UniProt O95398)
Assay: Validation qHTS for antagonist of cAMP-regulated guanine nucleotide exchange factor 3 (EPAC1); also: nearly all actives have a fitted effect of over 75% in size;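 as to activity change, negative = inhibition: plate controls were DMSO for no effect and ATA control for full effect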
Conditions: EPAC1 Rap1B-BODIPY-GDP exchange, fluorescence; series mostly up to 150 µM; activity change, negative = inhibition: at the top concentration
In short: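 Nucleotide exchange followed as fluorescence loss when BODIPY-GDP leaves Rap1B (480 nm excitation, 540 nm emission), read at 5 min intervals over 30 min. Reaction: 100 nM EPAC1, 250 nM RAP1B-BODIPY-GDP, 50 uM GDP; ATA and DMSO define normalization.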
Potency is read from the fitted curve at half-maximal effect.

Sequence of UniProt O95398 (O95398 whole entry, looked up): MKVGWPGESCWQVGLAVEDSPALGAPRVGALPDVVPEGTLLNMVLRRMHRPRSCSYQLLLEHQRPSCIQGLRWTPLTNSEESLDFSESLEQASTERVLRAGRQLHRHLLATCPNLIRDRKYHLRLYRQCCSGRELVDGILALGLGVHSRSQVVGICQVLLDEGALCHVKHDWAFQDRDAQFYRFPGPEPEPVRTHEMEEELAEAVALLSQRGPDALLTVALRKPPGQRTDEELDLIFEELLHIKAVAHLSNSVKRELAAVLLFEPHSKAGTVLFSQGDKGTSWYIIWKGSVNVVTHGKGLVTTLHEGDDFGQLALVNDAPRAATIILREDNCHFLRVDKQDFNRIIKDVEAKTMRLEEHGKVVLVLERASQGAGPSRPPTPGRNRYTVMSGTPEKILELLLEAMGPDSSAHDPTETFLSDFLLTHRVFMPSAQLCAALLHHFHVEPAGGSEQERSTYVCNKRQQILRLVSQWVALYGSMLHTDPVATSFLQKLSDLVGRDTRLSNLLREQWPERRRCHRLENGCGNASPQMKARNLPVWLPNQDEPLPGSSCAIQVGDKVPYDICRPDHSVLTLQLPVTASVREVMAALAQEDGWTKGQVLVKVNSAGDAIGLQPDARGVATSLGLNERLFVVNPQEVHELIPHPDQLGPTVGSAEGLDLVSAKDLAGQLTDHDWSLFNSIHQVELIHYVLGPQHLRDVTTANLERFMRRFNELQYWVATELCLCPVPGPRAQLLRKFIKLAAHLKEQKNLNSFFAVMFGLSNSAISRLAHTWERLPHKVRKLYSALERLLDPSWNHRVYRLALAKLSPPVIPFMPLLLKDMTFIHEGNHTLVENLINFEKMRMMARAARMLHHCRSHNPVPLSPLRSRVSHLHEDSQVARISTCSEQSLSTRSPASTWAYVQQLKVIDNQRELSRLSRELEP

SMILES | activity change, negative = inhibition | Potency
CCCCNC(=O)[C@@H]1CC=C[C@@H]2CCN(Cc3ccc(Cl)c(Cl)c3)C(=O)[C@@H]21 | inactive: 9% | 
COc1ccc(CNc2ccnc(-c3ccc(N(C)C)cc3)n2)c(OC)c1 | inactive: -8.34% | 
COC(=O)c1ccccc1C(=O)NCC1Cc2cc(-c3nc(C)cnc3C)ccc2O1 (stereo not drawn) | inactive: 14% | 
COc1cccc(CNc2ncnc3sc(C(=O)N4CC5CCC4C5)c(C)c23)c1OC (stereo not drawn) | inactive: 9.06% | 
C=C1[C@@H](O)[C@H](CC(C)C)N(Cc2ccccc2Br)S1(=O)=O |  | active: 89.1 µM
Cc1cc[n+](CC(=O)c2ccccc2)c2ccccc12 | inactive: 8.59% | 
COc1ccccc1C1CN(CC(=O)NCC2OCCc3ccccc32)Cc2ccccc2O1 (stereo not drawn) | inactive: 3.73% | 
C[C@H](CN1CCCC1)C(=O)c1ccc(C(F)(F)F)cc1 | inactive: 32.2% | 
CC(=O)N[C@@H](C)C(=O)NCC1Cc2cc(C)cc(-c3cnccn3)c2O1 (stereo partly drawn) | inactive: -0.941% | 
COc1ncc2ncc(=O)n(C[C@H]3CCCO3)c2n1 | inactive: 12.8% | 
COc1ccc(-c2nc3cncnc3n(-c3ccccc3)c2=O)cc1 | inactive: 6.72% | 
CC(=O)OCC(CCn1cnc2cnc(N)nc21)COC(C)=O | inactive: 11.1% | 
NNc1nncc2ccccc12 | inactive | 
COCC(=O)N1CCC[C@@]2(CCN(C(=O)Nc3ccccc3)C2)C1 | inactive: 1.91% | 
Cc1ccc(CN2CCOc3ccc(CN4CCC(O)(c5cccnc5)CC4)cc3C2)cc1 | inactive: 9.12% | 
N[C@](CC1c2ccccc2Oc2ccccc21)(C(=O)O)[C@H]1C[C@@H]1C(=O)O | inactive: 25% | 
O=C(/C=C/c1ccc(O)c(O)c1)OCCc1ccccc1 | inactive | 
COc1cccc(Cn2c(=O)c(-c3cccs3)nc3cnc(Nc4ccccc4)nc32)c1 | inactive: 32.3% | 
CCC(=O)NCc1nc(-c2cccc(NC(=O)c3ccc(C)s3)c2)oc1C | inactive: 9.29% | 
NCC(O)CC(=O)O (stereo not drawn) | inactive: 8.43% | 
COc1ccc(CN2CC[C@H]3C=CC[C@@H](C(=O)N4CCN(c5ccccc5)CC4)[C@H]3C2=O)cc1OC | inactive: 11.7% | 
[C-]#[N+]c1cc(-c2ccncc2)c(C)[nH]c1=O | inactive: 15.7% [at 320 µM] | 
COCCn1c(=O)cnc2cnc(Oc3ccc(OC)cc3)nc21 | inactive: -2.81% | 
C[C@H](CCC(=O)O)[C@H]1CC[C@H]2[C@@H]3[C@H](O)C[C@@H]4C[C@H](O)CC[C@]4(C)[C@H]3CC[C@]12C | inactive: 12.6% [at 75.8 µM] | 
Cc1ccc(C(=O)Nc2cnn(-c3ccc(C(=O)N(C)Cc4n[nH]c5c4CCCC5)cc3)c2)c(C)c1 | inactive: -5.63% | 
COc1ccccc1C1CN(CCNC(=O)[C@@H]2CSC(=O)N2)Cc2ccccc2O1 (stereo partly drawn) | inactive: 5.26% | 
C[N+](C)(C)CC[N+]1(C)Cc2c(Cl)c(Cl)c(Cl)c(Cl)c2C1 | inactive | 
Cc1cccc(CNC(=O)c2c3n(c(C)cc2=O)-c2ccccc2SC(c2sccc2C)C3)n1 (stereo not drawn) | inactive: 12.5% | 
